Assay results from PubChem BioAssay (NCATS).
This list was built around the results that the source calls inconclusive (neither active nor inactive); the mix of calls is not that of the screen. For some of these results: A potency beside an inconclusive call is a rough fit, not a confirmed value. The source made the active and inactive calls. Unless noted, calls come from the whole dose curve; as a rule, active = well fitted curve in the direction sought with a large enough effect; inconclusive = small, poorly fitted or top-dose-only effect, or another doubt; inactive = no such curve, though single readings can be large; an effect the other way counts as inactive or inconclusive.

What was measured:
[1] = P-glycoprotein substrates identified in KB-8-5-11 adenocarcinoma cell line, qHTS therapeutic library screen (AID 1346987); note: potency is the fitted concentration of half-maximal effect; nearly all actives have a fitted effect of over 65% in size
Method in brief: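 P-gp-mediated resistance screen: KB-8-5-11 cells treated 72 h with compounds in dose-response. CellTiter-Glo viability.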

Furin (Homo sapiens) = Furin (Homo sapiens) (UniProt P09958); assay: Furin counterscreen qHTS for Zika virus inhibitors (AID 1347149); conditions: furin enzymatic counterscreen, fluorogenic substrate; activity change, negative = inhibition: at 57.5 µM (top of the series); note: potency is the fitted concentration of half-maximal effect; nearly all actives have a fitted effect of over 70% in size
UniProt P09958, sequence (P09958 whole entry, looked up): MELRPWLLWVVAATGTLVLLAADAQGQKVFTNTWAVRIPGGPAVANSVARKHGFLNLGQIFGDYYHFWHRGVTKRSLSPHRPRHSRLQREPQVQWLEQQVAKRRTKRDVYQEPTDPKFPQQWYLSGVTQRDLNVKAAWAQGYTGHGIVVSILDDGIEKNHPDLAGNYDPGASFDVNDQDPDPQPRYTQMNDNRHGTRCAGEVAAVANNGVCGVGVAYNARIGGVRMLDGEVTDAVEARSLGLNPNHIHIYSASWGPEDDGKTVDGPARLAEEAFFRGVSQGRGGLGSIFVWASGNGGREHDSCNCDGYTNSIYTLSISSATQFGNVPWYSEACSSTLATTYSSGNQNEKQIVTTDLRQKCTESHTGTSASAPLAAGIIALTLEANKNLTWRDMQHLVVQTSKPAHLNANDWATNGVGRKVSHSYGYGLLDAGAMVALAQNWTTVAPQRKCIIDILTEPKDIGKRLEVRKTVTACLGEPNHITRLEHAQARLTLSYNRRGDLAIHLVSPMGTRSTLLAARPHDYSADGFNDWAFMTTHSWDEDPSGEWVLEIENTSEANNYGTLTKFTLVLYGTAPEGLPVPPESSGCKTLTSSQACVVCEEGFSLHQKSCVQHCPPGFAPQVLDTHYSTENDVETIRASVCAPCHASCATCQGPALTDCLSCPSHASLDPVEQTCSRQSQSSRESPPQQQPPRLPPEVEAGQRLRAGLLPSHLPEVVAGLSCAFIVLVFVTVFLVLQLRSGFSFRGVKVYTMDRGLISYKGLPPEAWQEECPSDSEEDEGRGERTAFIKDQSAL
Method in brief: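 Fluorogenic cleavage of BOC-RVRR-AMC (2 microM final, Km ~15 µM) was monitored (ex 340, em 450 nm) at 37C after 15 min RT preincubation of 5 nM furin with compounds in HEPES pH 7.0 buffer with CaCl2 and Triton X-100. Percent inhibition was fitted to a 4-parameter Hill curve.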

[2] = tested on: Zika virus NS2B-NS3 protease (linked construct); assay: Confirmatory screen NINDS AMC qHTS for Zika virus inhibitors (AID 1347152); note: potency is the fitted concentration of half-maximal effect; nearly all actives have a fitted effect of over 70% in size
Method in brief: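 Concentration-response confirmation used the NINDS linked protease (NS2B hydrophilic domain joined to NS3 protease domain), 1 nM, with a 15-min compound preincubation. Substrate, Nle-KRR-AMC at 10 microM, was read by UV fluorescence before and after 15 min.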

[3] = ZIKV-mCherry secondary qHTS for Zika virus inhibitors (AID 1347158); note: potency is the fitted concentration of half-maximal effect
Method in brief: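 After overnight seeding at 37 °C, Vero cells receive compound and then ZIKV-mCherry (MOI 1). Following 48-72 h infection, cells are fixed, counterstained with Hoechst, and imaged; percent infected cells is derived from an mCherry intensity cut-off of 450 RFU.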

[4] = tested on: Zika virus NS2B-NS3 protease (unlinked complex); assay: Primary screen GU Rhodamine qHTS for Zika virus inhibitors: Unlinked NS2B-NS3 protease assay (AID 1347159); note: nearly all actives have a fitted effect of over 60% in size; note: potency is the fitted concentration of half-maximal effect; for activity change, negative = inhibition: % is set by controls: 0 for no effect and ±100 for the full control effect
Method in brief: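 Percent inhibition derives from the 15-min fluorescence change (ex 480, em 540 nm), normalized to no-enzyme and no-inhibitor wells. Reactions contained 25 nM NS2B-NS3 complex and 1.5 microM substrate in 10 mM Tris-HCl pH 8.0.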

[5] = tested on: Zika virus NS2B-NS3 protease (linked construct); assay: Primary screen NINDS Rhodamine qHTS for Zika virus inhibitors (AID 1347160); conditions: activity change, negative = inhibition: at 57.1 µM (top of the series) unless noted; note: potency is the fitted concentration of half-maximal effect; nearly all actives have a fitted effect of over 55% in size
Method in brief: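 In 10 mM Tris-HCl pH 8.0 containing 0.01% Tween 20, linked NS2B-NS3 protease (25 nM final) is exposed to test compounds for 15 min. Cleavage of 1.5 microM Rhodamine110 substrate is tracked by fluorescence over 15 min.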

[6] = tested on: Zika virus NS2B-NS3 protease (linked construct); assay: 384 well plate NINDS Rhodamine confirmatory qHTS for Zika virus inhibitors (AID 1347164);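 note: top concentration of the series differs between compounds; plate controls were no-inhibitor control for no effect and no-enzyme control for full effect; nearly all actives have a fitted effect of over 65% in size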
Method in brief: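 Cleavage of Ac-LKRR-Rhodamine 110 (10 microM final) by linked protease (final 5, 30 or 60 nM) was followed as fluorescence at 485/538 nm after 25 min, room temperature, dark. Compounds preincubated ~15 min.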

[7] = Vero cells viability qHTS for Zika virus inhibitors (AID 1347167); note: potency is the fitted concentration of half-maximal effect
Method in brief: (§1)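 Counter-screen for cytotoxicity of hits from NS2B-NS3 protease qHTS. Overnight-attached cells (2.5 x 10^5 cells/mL, DMEM/4% FBS) were dosed in titration, incubated 24 to 48 hours, then assayed by CellTiter Glo.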

[8] = HepG2 cells viability qHTS for Zika virus inhibitors (AID 1347168); note: potency is the fitted concentration of half-maximal effect
Method in brief: as §1

[9] = Tertiary RLuc qRT-PCR qHTS assay for Zika virus inhibitors (AID 1347169); note: potency is the fitted concentration of half-maximal effect; nearly all actives have a fitted effect of over 55% in size
Method in brief: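 Inhibition of ZIKV-RLuc replication in Vero cells, read as Renilla luminescence 1-1.5 hrs after live-cell substrate addition, following 48-72 hrs infection at MOI 1-2 in presence of compound.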

[10] = biological target: Cytochrome P450 2D6 (Homo sapiens) (UniProt P10635); assay: Cytochrome P450 family 2 subfamily D member 6 (CYP2D6) small molecule antagonists: luciferase biochemical (cell-free) qHTS assay (AID 1645840; active = well fitted curve in the direction sought with a large enough effect in the repeat runs; inconclusive = weak or mixed curves; inactive = no such curve, though single readings can be large; an effect the other way counts as inactive or inconclusive; note: potency is the fitted concentration of half-maximal effect; nearly all actives have a fitted effect of over 55% in size)
UniProt P10635, sequence (P10635 whole entry, looked up): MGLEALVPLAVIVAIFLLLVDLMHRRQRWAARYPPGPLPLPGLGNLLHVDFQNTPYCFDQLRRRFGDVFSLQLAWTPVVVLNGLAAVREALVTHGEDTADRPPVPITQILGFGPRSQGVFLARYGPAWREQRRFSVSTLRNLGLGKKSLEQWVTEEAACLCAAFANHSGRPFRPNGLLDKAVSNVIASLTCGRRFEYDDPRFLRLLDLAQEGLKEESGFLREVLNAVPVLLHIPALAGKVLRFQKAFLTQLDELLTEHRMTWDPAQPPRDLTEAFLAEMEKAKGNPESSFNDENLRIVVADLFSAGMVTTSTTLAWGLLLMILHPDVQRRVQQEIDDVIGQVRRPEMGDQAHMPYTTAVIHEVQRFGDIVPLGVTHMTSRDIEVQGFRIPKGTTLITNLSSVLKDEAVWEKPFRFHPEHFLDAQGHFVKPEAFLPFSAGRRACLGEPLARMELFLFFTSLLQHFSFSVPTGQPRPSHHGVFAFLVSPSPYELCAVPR
Method in brief: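 P450-Glo luminescent screen: recombinant CYP2D6 enzyme–proluciferin substrate mix preincubated with compound 10 min at room temperature, then NADPH regeneration added for 1 h at room temperature. Detection reagent added for 20 min; luciferin light read as relative luminescence units.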

KB-3-1 = assay: Cytotoxic Profiling of Annotated Libraries Using Quantitative High-Throughput Screening (AID 1296008); conditions: Five cell lines viability, CellTiter-Glo ATP luminescence, 48-72 h; max response: active compounds read low; note: nearly all actives have a fitted effect of over 60% in size; note: potency is the fitted concentration of half-maximal effect; for max response: % is set by controls: 0 for no effect and ±100 for the full control effect
Method in brief: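 Compounds were pin-transferred onto cells and incubated 48 or 72 hr at 37 degree Celsius, 95% humidity. CellTiter-Glo was added, plates sat 10 min at room temperature, then ATP-coupled luminescence was imaged as the viability read-out.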

C33A = assay: Primary qHTS to identify gynecologic anti-cancer compounds using libraries of approved drugs and bioactive compounds (AID 1345084); conditions: Gynecologic cancer cell panel viability, ATPlite luminescence, 48 h; series mostly up to 57.5 µM; note: nearly all actives have a fitted effect of over 55% in size; note: potency is the fitted concentration of half-maximal effect; for activity change, negative = cytotoxicity: % is set by controls: 0 for no effect and ±100 for the full control effect
Method in brief: (§2)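 48 h compound exposure at 37 C, 5% CO2; five-point qHTS. ATPlite luminescence readout of cell ATP.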

CAOV3 = assay: as above; conditions: Gynecologic cancer cell panel viability, ATPlite luminescence, 48 h; activity change, negative = cytotoxicity: at 57.5 µM (top of the series)
Method in brief: as §2

CASKI = assay: as above; conditions: Gynecologic cancer cell panel viability, ATPlite luminescence, 48 h; series mostly up to 57.5 µM
Method in brief: as §2

Es-2 = assay: as above; conditions: Gynecologic cancer cell panel viability, ATPlite luminescence, 48 h; series mostly up to 57.5 µM
Method in brief: as §2

HeLa = assay: as above; conditions: Gynecologic cancer cell panel viability, ATPlite luminescence, 48 h; activity change, negative = cytotoxicity: at 57.5 µM (top of the series)
Method in brief: as §2

Hek293T = assay: as above; conditions: Gynecologic cancer cell panel viability, ATPlite luminescence, 48 h, control line for the selectivity index; activity change, negative = cytotoxicity: at 57.5 µM (top of the series) unless noted
Method in brief: as §2

JEG-3 = assay: as above; conditions: Gynecologic cancer cell panel viability, ATPlite luminescence, 48 h; series mostly up to 57.5 µM
Method in brief: as §2

OV90 = assay: as above; conditions: Gynecologic cancer cell panel viability, ATPlite luminescence, 48 h; series mostly up to 57.5 µM
Method in brief: as §2

PA-1 = assay: as above; conditions: Gynecologic cancer cell panel viability, ATPlite luminescence, 48 h; series mostly up to 57.5 µM
Method in brief: as §2

SKOV3 = assay: as above; conditions: Gynecologic cancer cell panel viability, ATPlite luminescence, 48 h; series mostly up to 57.5 µM
Method in brief: as §2

Tov-21-G = assay: as above; conditions: Gynecologic cancer cell panel viability, ATPlite luminescence, 48 h; activity change, negative = cytotoxicity: at 57.5 µM (top of the series) unless noted
Method in brief: as §2

Tov112D = assay: as above; conditions: Gynecologic cancer cell panel viability, ATPlite luminescence, 48 h; series mostly up to 57.5 µM
Method in brief: as §2

[11] = Primary qHTS for inhibitors of nuclear receptor binding SET domain protein 2 (NSD2) in an RCH-ACV wild type WT cells (2C) (AID 1645877); conditions: activity change, negative = cell killing: at 44.9 µM (top of the series) unless noted; note: potency is the fitted concentration of half-maximal effect; nearly all actives have a fitted effect of over 70% in size
[12] = biological target: Calcium and integrin-binding protein 1 (Homo sapiens) (UniProt Q99828); assay: Primary qHTS for Identification of Calcium Integrin Binding Protein 1 (CIB1) Competitor (AID 1508620); note: potency is the fitted concentration of half-maximal effect
UniProt Q99828, sequence (Q99828 whole entry, looked up): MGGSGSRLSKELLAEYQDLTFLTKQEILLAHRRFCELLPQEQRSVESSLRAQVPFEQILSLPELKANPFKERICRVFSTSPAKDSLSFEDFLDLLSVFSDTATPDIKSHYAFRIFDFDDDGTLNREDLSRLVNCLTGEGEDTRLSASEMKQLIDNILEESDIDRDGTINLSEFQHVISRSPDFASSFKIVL
Method in brief: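 Fluorescence polarization competition: CIB1-GST (1 uM final) preincubated with compound 15 min at room temperature, then FITC-labeled alphaIIb peptide (100 nM final) added for another 15 min. Polarization read at Ex 480/Em 540.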

[13] = Primary redox qHTS assay for identification of artifact compounds. (AID 1845223); conditions: Amplex Red/HRP redox cycling with DTT, fluorescence; redox activity (% of DA3003): at 53.8 µM (top of the series); note: potency is the fitted concentration of half-maximal effect
Method in brief: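 Amplex Red (25 uM) and HRP (250 mU/mL) in HBSS, with compounds for 15 min, then 250 uM DTT for 30 min, room temperature, dark. Fluorescence 525/598 nm read; normalized to DMSO and 10 uM DA3003; Hill fit.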

[14] = qHTS to identify inhibitors of the type 1 interferon - major histocompatibility complex class I in skeletal muscle: primary screen against the NCATS Mechanism Interrogation Plate v5.0 (MIPE) Libary (AID 1347411); conditions: iHSKM cells + IFN-b, HiBiT-tagged MHC-I luminescence, 24 h; activity change, negative = inhibition: at 45.8 µM (top of the series); note: potency is the fitted concentration of half-maximal effect; nearly all actives have a fitted effect of over 65% in size
Method in brief: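 Cells were genome-edited human myoblasts carrying a HiBit tag on endogenous HLA-B. They were treated with IFN-beta (4.0 ng/ml) and titrated compounds (top 46 uM) for 24 hrs before lytic HiBiT detection.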

[15] = biological target: Glutathione peroxidase 1 (Homo sapiens) (UniProt P07203); assay: Primary qHTS Assay for Inhibitors of Recombinant Selenoprotein Glutathione Peroxidase 1 (GPX1) (AID 1845191); conditions: activity, negative = inhibition: at 48.8 µM (top of the series); note: potency is the fitted concentration of half-maximal effect; nearly all actives have a fitted effect of over 65% in size
UniProt P07203, sequence (P07203 whole entry, looked up): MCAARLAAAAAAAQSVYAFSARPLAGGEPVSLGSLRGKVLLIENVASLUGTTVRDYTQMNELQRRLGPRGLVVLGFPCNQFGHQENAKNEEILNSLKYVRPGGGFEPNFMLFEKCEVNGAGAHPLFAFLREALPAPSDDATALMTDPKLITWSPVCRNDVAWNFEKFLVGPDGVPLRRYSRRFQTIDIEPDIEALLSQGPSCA
Method in brief: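 Recombinant GPX1 (10 nM final) was preincubated with compound for 30 min at room temperature, then reacted with 1 mM GSH, 0.5 mM CHP, 0.5 mM NADPH and 100 nM glutathione reductase; NADPH fluorescence (340/450 nm) was read at 0 and 15 min.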

[16] = biological target: Phospholipid hydroperoxide glutathione peroxidase GPX4 (Homo sapiens) (UniProt P36969); assay: Primary qHTS Assay for Inhibitors of Recombinant Selenoprotein Glutathione Peroxidase 4 (GPX4) (AID 1845192)
UniProt P36969, sequence (P36969 whole entry, looked up): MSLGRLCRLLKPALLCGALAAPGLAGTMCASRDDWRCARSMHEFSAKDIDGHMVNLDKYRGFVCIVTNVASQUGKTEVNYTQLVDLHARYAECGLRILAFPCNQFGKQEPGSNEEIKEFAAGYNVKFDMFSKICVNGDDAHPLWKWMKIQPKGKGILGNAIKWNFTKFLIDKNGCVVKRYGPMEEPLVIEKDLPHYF
Method in brief: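 GR-coupled readout: 100 nM GR, 1 mM GSH, 0.5 mM NADPH; NADPH fluorescence (ex 340/em 450 nm) read at t=0 and after 15 min RT. GPX4 200 nM, preincubated 30 min with compound; substrate 0.5 mM CHP.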
Tags give direction and shape of the fitted curve.

CN(CC(=O)N(Cc1ccc(C2CCCCC2)cc1)c1ccc(C(=O)O)cc1)S(=O)(=O)c1c(F)c(F)c(F)c(F)c1F
inconclusive: Potency [1] 20.6 µM [inhibitor, single point] | Potency (Furin (Homo sapiens)) 27.8 µM [inhibitor, full curve] | Potency [3] 4.47 µM [inhibitor, full curve, poor fit] | Potency [7] 37 µM [cytotoxic, partial curve, poor fit] | Potency [8] 37 µM [cytotoxic, single point] | Potency [10] 37.9 µM [inhibitor, single point] | Potency (KB-3-1) 29.1 µM [inhibitor, single point] | Potency (C33A) 39.8 µM [cytotoxic, single point] | Potency (CASKI) 39.8 µM [cytotoxic, single point] | Potency (HeLa) 39.8 µM [cytotoxic, single point] | Potency (Hek293T) 39.8 µM [cytotoxic, single point] | Potency (OV90) 39.8 µM [cytotoxic, single point] | Potency (PA-1) 25.1 µM [cytotoxic, partial curve, poor fit] | Potency (Tov-21-G) 35.5 µM [cytotoxic, single point] | Potency (Tov112D) 35.5 µM [cytotoxic, single point]
inactive: Potency [6] | Potency (Es-2)
active: Potency [2] 19.7 µM | Potency [4] 2.51 µM | Potency [5] 2.82 µM | Potency [9] 7.39 µM | Potency (CAOV3) 25.1 µM | Potency (JEG-3) 25.1 µM | Potency (SKOV3) 31.6 µM

C[C@@H]1CCC2C(C)(C)[C@H](O)CC[C@]2(C)[C@@]12Cc1c(O)cc3c(c1O2)CNC3=O (stereo partly drawn)
inactive: Potency [4] | max response (KB-3-1) 9.73% | Potency (CAOV3)
inconclusive: Potency [11] 17.9 µM [inhibitor, single point] | Potency (C33A) 0.794 µM | Potency (CASKI) 35.5 µM | Potency (Es-2) 2.51 µM | Potency (HeLa) 8910 µM | Potency (Hek293T) 10 µM | Potency (JEG-3) 31.6 µM | Potency (OV90) 0.251 µM | Potency (PA-1) 0.794 µM | Potency (SKOV3) 0.447 µM | Potency (Tov-21-G) 0.112 µM | Potency (Tov112D) 1.58 µM

C=C1C(=O)O[C@H]2C3=C(C)CCC[C@]3(C)C(=O)C[C@@H]12
active: Potency (CAOV3) 31.6 µM | Potency (Tov-21-G) 20 µM
inconclusive: Potency [1] 16.4 µM [inhibitor, single point] | Potency [12] 56.2 µM [inhibitor, partial curve, poor fit] | Potency (KB-3-1) 29.1 µM [inhibitor, single point] | Potency (C33A) 39.8 µM [cytotoxic, single point] | Potency (CASKI) 28.2 µM [cytotoxic, single point] | Potency (Hek293T) 28.2 µM [cytotoxic, single point] | Potency (OV90) 10 µM [cytotoxic, partial curve] | Potency (PA-1) 39.8 µM [cytotoxic, single point] | Potency (SKOV3) 10 µM [cytotoxic, partial curve, poor fit] | Potency (Tov112D) 35.5 µM [cytotoxic, single point]

CC1=C2C[C@@]3(C)[C@@H](CCC[C@@H]3C)C[C@@]2(O)OC1=O
inconclusive: Potency [13] 23.8 µM [activator, partial curve, poor fit] | Potency (CAOV3) 3.98 µM [cytotoxic, single point]
inactive: max response (KB-3-1) 8.04% | Potency (HeLa) | Potency (Tov-21-G)

CC[C@@H](C)Nc1cc(C(=O)NC2CC3CC[C@@H](C2)N3c2ccc(C(=O)C3CC3)cn2)c(C)cc1C(N)=O (stereo partly drawn)
inconclusive: Potency [1] 0.146 µM [inhibitor, full curve] | Potency [13] 3.77 µM [activator, partial curve, poor fit] | Potency (KB-3-1) 0.0206 µM [inhibitor, full curve] | Potency (C33A) 0.447 µM [cytotoxic, full curve] | Potency (CASKI) 0.398 µM [cytotoxic, full curve] | Potency (Es-2) 0.891 µM [cytotoxic, full curve] | Potency (HeLa) 0.251 µM [cytotoxic, full curve, poor fit] | Potency (JEG-3) 1 µM [cytotoxic, full curve] | Potency (SKOV3) 2.82 µM [cytotoxic, partial curve, poor fit] | Potency (Tov112D) 0.398 µM [cytotoxic, full curve, poor fit]
active: Potency [14] 0.117 µM | Potency [15] 16.3 µM | Potency [16] 2.55 µM | Potency (CAOV3) 0.794 µM | Potency (Hek293T) 0.316 µM | Potency (OV90) 0.316 µM | Potency (Tov-21-G) 0.398 µM
